Measurements from the supplement of paper PMC8728848.
The other results are listed elsewhere or left out.

Key:
Experiment in all cases: glycan array binding signal (z-score within array); higher = stronger binding
Settings in all cases: glycan notation: IUPAC condensed, linker removed
Neu5Ac(a2-3)GalNAc = target: Neu5Ac(a2-3)GalNAc
In short: (§1)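 The binding signal is a Z-score computed within each array. Data were drawn from 3228 arrays in the Consortium for Functional Glycomics database, restricted to those with a known protein sequence. Scores were averaged over arrays of the same protein sequence at different concentrations or buffers, and over linkers, and negative values can be taken as non-binding.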

[1] = target: Neu5Ac(a2-3)GalNAc(b1-4)GlcNAc
In short: as §1

[2] = target: Neu5Ac(a2-3)[GalNAc(b1-4)]Gal(b1-4)Glc
In short: as §1

[3] = target: Neu5Ac(a2-3)[GalNAc(b1-4)]Gal(b1-4)GlcNAc
In short: as §1

[4] = target: Neu5Ac(a2-3)[GalNAc(b1-4)]Gal(b1-4)GlcNAc(b1-3)GalNAc
In short: as §1

[5] = target: Neu5Ac(a2-3)[Neu5Ac(a2-6)]GalNAc
In short: as §1

Neu5Ac(a2-6)Gal = target: Neu5Ac(a2-6)Gal
In short: as §1

[6] = target: Neu5Ac(a2-6)Gal(b1-3)GlcNAc(b1-3)[Gal(b1-4)GlcNAc(b1-6)]Gal(b1-4)Glc
In short: as §1

Neu5Ac(a2-6)Gal(b1-4)Glc = target: Neu5Ac(a2-6)Gal(b1-4)Glc
In short: as §1

[7] = target: Neu5Ac(a2-6)Gal(b1-4)GlcNAc
In short: as §1

[8] = target: Neu5Ac(a2-6)Gal(b1-4)GlcNAc(b1-2)Man
In short: as §1

[9] = target: Neu5Ac(a2-6)Gal(b1-4)GlcNAc(b1-2)Man(a1-3)Man(b1-4)GlcNAc(b1-4)GlcNAc
In short: as §1

[10] = target: Neu5Ac(a2-6)Gal(b1-4)GlcNAc(b1-2)Man(a1-3)[Gal(b1-4)GlcNAc(b1-2)Man(a1-6)]Man(b1-4)GlcNAc(b1-4)GlcNAc
In short: as §1

[11] = target: Neu5Ac(a2-6)Gal(b1-4)GlcNAc(b1-2)Man(a1-3)[GlcNAc(b1-2)Man(a1-6)]Man(b1-4)GlcNAc(b1-4)GlcNAc
In short: as §1

[12] = target: Neu5Ac(a2-6)Gal(b1-4)GlcNAc(b1-2)Man(a1-3)[GlcNAc(b1-4)][Neu5Ac(a2-6)Gal(b1-4)GlcNAc(b1-2)Man(a1-6)]Man(b1-4)GlcNAc(b1-4)GlcNAc
In short: as §1

[13] = target: Neu5Ac(a2-6)Gal(b1-4)GlcNAc(b1-2)Man(a1-3)[Man(a1-6)]Man(b1-4)GlcNAc(b1-4)GlcNAc
In short: as §1

[14] = target: Neu5Ac(a2-6)Gal(b1-4)GlcNAc(b1-2)Man(a1-3)[Neu5Ac(a2-3)Gal(b1-4)GlcNAc(b1-2)Man(a1-6)]Man(b1-4)GlcNAc(b1-4)GlcNAc
In short: as §1

[15] = target: Neu5Ac(a2-6)Gal(b1-4)GlcNAc(b1-2)Man(a1-3)[Neu5Ac(a2-6)Gal(b1-4)GlcNAc(b1-2)Man(a1-6)]Man(b1-4)GlcNAc(b1-4)GlcNAc
In short: as §1

[16] = target: Neu5Ac(a2-6)Gal(b1-4)GlcNAc(b1-2)Man(a1-3)[Neu5Ac(a2-6)Gal(b1-4)GlcNAc(b1-2)Man(a1-6)]Man(b1-4)GlcNAc(b1-4)[Fuc(a1-6)]GlcNAc
In short: as §1

[17] = target: Neu5Ac(a2-6)Gal(b1-4)GlcNAc(b1-2)Man(a1-6)Man(b1-4)GlcNAc(b1-4)GlcNAc
In short: as §1

[18] = target: Neu5Ac(a2-6)Gal(b1-4)GlcNAc(b1-2)Man(a1-6)[Gal(b1-4)GlcNAc(b1-2)Man(a1-3)]Man(b1-4)GlcNAc(b1-4)GlcNAc
In short: as §1

[19] = target: Neu5Ac(a2-6)Gal(b1-4)GlcNAc(b1-2)Man(a1-6)[GlcNAc(b1-2)Man(a1-3)]Man(b1-4)GlcNAc(b1-4)GlcNAc
In short: as §1

[20] = target: Neu5Ac(a2-6)Gal(b1-4)GlcNAc(b1-2)Man(a1-6)[Man(a1-3)]Man(b1-4)GlcNAc(b1-4)GlcNAc
In short: as §1

[21] = target: Neu5Ac(a2-6)Gal(b1-4)GlcNAc(b1-2)[Neu5Ac(a2-6)Gal(b1-4)GlcNAc(b1-4)]Man(a1-3)[GlcNAc(b1-4)][Neu5Ac(a2-6)Gal(b1-4)GlcNAc(b1-2)[Neu5Ac(a2-6)Gal(b1-4)GlcNAc(b1-6)]Man(a1-6)]Man(b1-4)GlcNAc(b1-4)GlcNAc
In short: as §1

[22] = target: Neu5Ac(a2-6)Gal(b1-4)GlcNAc(b1-2)[Neu5Ac(a2-6)Gal(b1-4)GlcNAc(b1-4)]Man(a1-3)[GlcNAc(b1-4)][Neu5Ac(a2-6)Gal(b1-4)GlcNAc(b1-4)Man(a1-6)]Man(b1-4)GlcNAc(b1-4)GlcNAc
In short: as §1

[23] = target: Neu5Ac(a2-6)Gal(b1-4)GlcNAc(b1-2)[Neu5Ac(a2-6)Gal(b1-4)GlcNAc(b1-6)]Man(a1-6)[Neu5Ac(a2-6)Gal(b1-4)GlcNAc(b1-2)Man(a1-3)][GlcNAc(b1-4)]Man(b1-4)GlcNAc(b1-4)GlcNAc
In short: as §1

[24] = target: Neu5Ac(a2-6)Gal(b1-4)GlcNAc(b1-3)Gal(b1-3)GlcNAc
In short: as §1

[25] = target: Neu5Ac(a2-6)Gal(b1-4)GlcNAc(b1-3)Gal(b1-4)GlcNAc
In short: as §1

[26] = target: Neu5Ac(a2-6)Gal(b1-4)GlcNAc(b1-3)Gal(b1-4)GlcNAc(b1-2)Man(a1-3)[Neu5Ac(a2-6)Gal(b1-4)GlcNAc(b1-3)Gal(b1-4)GlcNAc(b1-2)Man(a1-6)]GalNAc
In short: as §1

[27] = target: Neu5Ac(a2-6)Gal(b1-4)GlcNAc(b1-3)Gal(b1-4)GlcNAc(b1-3)Gal(b1-4)GlcNAc
In short: as §1

[28] = target: Neu5Ac(a2-6)Gal(b1-4)GlcNAc(b1-3)Gal(b1-4)GlcNAc(b1-3)Gal(b1-4)GlcNAc(b1-2)Man(a1-3)[Neu5Ac(a2-6)Gal(b1-4)GlcNAc(b1-3)Gal(b1-4)GlcNAc(b1-3)Gal(b1-4)GlcNAc(b1-2)Man(a1-6)]GalNAc
In short: as §1

[29] = target: Neu5Ac(a2-6)Gal(b1-4)GlcNAc(b1-3)Gal(b1-4)GlcNAc(b1-3)GalNAc
In short: as §1

[30] = target: Neu5Ac(a2-6)Gal(b1-4)GlcNAc(b1-3)Gal(b1-4)GlcNAc(b1-3)[Neu5Ac(a2-6)Gal(b1-4)GlcNAc(b1-3)Gal(b1-4)GlcNAc(b1-6)]GalNAc
In short: as §1

[31] = target: Neu5Ac(a2-6)Gal(b1-4)GlcNAc(b1-3)Gal(b1-4)GlcNAc(b1-6)[Gal(b1-3)]GalNAc
In short: as §1

[32] = target: Neu5Ac(a2-6)Gal(b1-4)GlcNAc(b1-3)Gal(b1-4)[Fuc(a1-3)]GlcNAc(b1-3)Gal(b1-4)[Fuc(a1-3)]GlcNAc
In short: as §1

[33] = target: Neu5Ac(a2-6)Gal(b1-4)GlcNAc(b1-3)GalNAc
In short: as §1

[34] = target: Neu5Ac(a2-6)Gal(b1-4)GlcNAc(b1-3)[Neu5Ac(a2-6)Gal(b1-4)GlcNAc(b1-6)]GalNAc
In short: as §1

[35] = target: Neu5Ac(a2-6)Gal(b1-4)GlcNAc(b1-6)GalNAc
In short: as §1

[36] = target: Neu5Ac(a2-6)Gal(b1-4)GlcNAc(b1-6)[Gal(b1-3)GlcNAc(b1-3)]Gal(b1-4)Glc
In short: as §1

[37] = target: Neu5Ac(a2-6)Gal(b1-4)GlcNAc(b1-6)[Gal(b1-3)]GalNAc
In short: as §1

[38] = target: Neu5Ac(a2-6)Gal(b1-4)GlcNAc6S
In short: as §1

Neu5Ac(a2-6)GalNAc = target: Neu5Ac(a2-6)GalNAc
In short: as §1

[39] = target: Neu5Ac(a2-6)GalNAc(b1-4)GlcNAc
In short: as §1

[40] = target: Neu5Ac(a2-6)GalNAc(b1-4)GlcNAc6S
In short: as §1

[41] = target: Neu5Ac(a2-6)GlcNAc(b1-4)GlcNAc
In short: as §1

B1: GS14009A-pdi-495-27-495 (Parabacteroides distasonis) (protein)
chain: FEEVNTDPDSPTDVPTTNLLAYSLYYTSYRLYDRWFAMDEPMTFCGYASKMTYIDESRYNFRTGVQDTNWEYLYRILNNLKDIEKRATFNETPNMLNVSKVMQVHLMQVATDRWRDVPYTDAAKMTDGILQPKYDKQEDIYPGLLATLKEAADGFADGGSDDLGEGDLLFGGDIEKWQRYCNSMRLRLAMRISEVSPALAKETVEEVMGNPTKYPIMESNDDNAFFWWIGTDPNYYEPMADGYRTRKTEYCAADVIVDHMNTREDPRRSSYFQPTKESVEAGEPKYVGYTIGAKANAVASKYSIWGARFFTDLAGFSPYMRVAEPWFCVAEASMLGWNTGISAEDAYNKAVTYSMEENSVSAEDIADYLANAGKFTNDKKQIYYEEWVAMFKQGMEGWSLYRRTGVPDNLYPAPGRPANYSNHNVPPFRSPYPDKERNLNNANCAPFDAEVVDNLWGKQMWWDTRTGVH
glycan array binding signal (z-score) (Neu5Ac(a2-3)GalNAc): -0.522 | glycan array binding signal (z-score) [1]: -0.547 | glycan array binding signal (z-score) [2]: -0.129 | glycan array binding signal (z-score) [3]: -0.641 | glycan array binding signal (z-score) [4]: 1 | glycan array binding signal (z-score) [5]: -1.01 | glycan array binding signal (z-score) (Neu5Ac(a2-6)Gal): 0.931 | glycan array binding signal (z-score) [6]: -0.337 | glycan array binding signal (z-score) (Neu5Ac(a2-6)Gal(b1-4)Glc): 0.329 | glycan array binding signal (z-score) [7]: -0.008 | glycan array binding signal (z-score) [8]: -0.108 | glycan array binding signal (z-score) [9]: 0.245 | glycan array binding signal (z-score) [10]: 0.284 | glycan array binding signal (z-score) [11]: -0.126 | glycan array binding signal (z-score) [12]: -0.102 | glycan array binding signal (z-score) [13]: -0.647 | glycan array binding signal (z-score) [14]: -0.631 | glycan array binding signal (z-score) [15]: -0.114 | glycan array binding signal (z-score) [16]: 0.457 | glycan array binding signal (z-score) [17]: -0.893 | glycan array binding signal (z-score) [18]: 0.46 | glycan array binding signal (z-score) [19]: -0.042 | glycan array binding signal (z-score) [20]: -0.156 | glycan array binding signal (z-score) [21]: -0.036 | glycan array binding signal (z-score) [22]: 0.029 | glycan array binding signal (z-score) [23]: -0.319 | glycan array binding signal (z-score) [24]: -0.204 | glycan array binding signal (z-score) [25]: -0.236 | glycan array binding signal (z-score) [26]: -0.152 | glycan array binding signal (z-score) [27]: -0.311 | glycan array binding signal (z-score) [28]: -0.125 | glycan array binding signal (z-score) [29]: -0.262 | glycan array binding signal (z-score) [30]: 0.196 | glycan array binding signal (z-score) [31]: 0.489 | glycan array binding signal (z-score) [32]: -0.398 | glycan array binding signal (z-score) [33]: -0.423 | glycan array binding signal (z-score) [34]: -0.228 | glycan array binding signal (z-score) [35]: 0.102 | glycan array binding signal (z-score) [36]: -0.519 | glycan array binding signal (z-score) [37]: 0.564 | glycan array binding signal (z-score) [38]: -0.405 | glycan array binding signal (z-score) (Neu5Ac(a2-6)GalNAc): -0.021 | glycan array binding signal (z-score) [39]: -0.069 | glycan array binding signal (z-score) [40]: -0.361 | glycan array binding signal (z-score) [41]: -0.598
